Laboratory results as given in PubChem BioAssay (NCATS).
The shares of active, inactive and inconclusive entries below differ from those in the screen. For part of these data: Where the call is inconclusive, the potency comes from a doubtful curve fit. For part of these data: “Side channel” marks fits to a control or component signal instead of the main read-out. The source made the active and inactive calls. Unless noted, the call rests on the fitted dose curve; in most records, active means well fitted curve in the direction sought with a large enough effect; inconclusive means small, poorly fitted or top-dose-only effect, or another doubt; inactive means no such curve, though single readings can be large; an effect the other way counts as inactive or inconclusive.

How the values were obtained:
[1] = target: Bile acid receptor (Homo sapiens) (UniProt Q96RI1); assay: qHTS assay for small molecule antagonists of farnesoid X receptor signaling (AID 588526; calls by dose curve; further: on the % scale 0 is the no-effect control and ±100 the full control effect); conditions: HEK293T FXR-UAS-bla, beta-lactamase ratio, antagonist mode; activity change, negative = inhibition: at 76.7 µM (top of the series)
Outline: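 Beta-lactamase reporter antagonist mode: HEK293T FXR-UAS-bla cells, titrated compound, CDCA stimulation, 16 h 37 C, CCF4 dye 2 h RT. Data normalized to CDCA 50 uM and DMSO; Hill-fit IC50.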

[2] = target: Peroxisome proliferator-activated receptor delta (Homo sapiens) (UniProt Q03181); assay: qHTS assay for small molecule antagonists of peroxisome proliferator-activated receptor delta signaling (AID 588535; active means well fitted inhibition curve with a large enough effect in the signal ratio, with a control signal flat, not every such curve was filed as active; inconclusive means small, poorly fitted or top-dose-only effect, or effect the other way, or a change in a side signal; inactive means no such curve, though single readings can be large or run the other way; the % refers to the signal ratio; further: potency means the concentration at half of the fitted maximal effect); conditions: HEK293T PPARd-UAS-bla, beta-lactamase FRET ratio, 18 h; activity change, negative = inhibition: at 76.7 µM (top of the series) unless noted
Sequence of UniProt Q03181 (Q03181 whole entry, looked up): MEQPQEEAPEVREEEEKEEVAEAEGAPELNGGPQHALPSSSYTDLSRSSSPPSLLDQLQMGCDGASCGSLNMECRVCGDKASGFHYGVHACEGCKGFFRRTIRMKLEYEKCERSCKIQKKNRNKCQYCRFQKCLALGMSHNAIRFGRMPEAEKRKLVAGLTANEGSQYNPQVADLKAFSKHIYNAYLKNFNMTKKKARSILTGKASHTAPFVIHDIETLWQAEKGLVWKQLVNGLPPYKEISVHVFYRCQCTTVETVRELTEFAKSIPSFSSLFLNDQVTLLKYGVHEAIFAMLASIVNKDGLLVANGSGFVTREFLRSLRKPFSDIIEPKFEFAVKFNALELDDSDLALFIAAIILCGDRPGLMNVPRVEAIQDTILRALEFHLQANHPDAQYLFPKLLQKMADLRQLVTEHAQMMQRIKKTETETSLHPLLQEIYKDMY
Outline: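 HEK293T PPAR-delta-UAS-bla cells, 4000/well, 2% charcoal/dextran FBS; 5 h 37 C; cpd titration; 18 h 37 C; CCF4 2 h RT; FI 460/530 nm; Hill fit → IC50, efficacy.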

[3] = target: Peroxisome proliferator-activated receptor gamma (Homo sapiens) (UniProt P37231); assay: qHTS assay for small molecule antagonists of peroxisome proliferator-activated receptor gamma signaling (AID 588537; active means well fitted inhibition curve with a large enough effect in the signal ratio, with a control signal flat, not every such curve was filed as active; inconclusive means small, poorly fitted or top-dose-only effect, or effect the other way, or a change in a side signal; the % refers to the signal ratio;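 further: reporter cells co-stimulated with 50 nM rosiglitazone agonist during compound treatment; % of control where 0% means no effect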); conditions: HEK293 PPARg-UAS-bla, beta-lactamase ratio, antagonist mode; activity, negative = inhibition: at 76.8 µM (top of the series) unless noted
Outline: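 Antagonist mode, beta-lactamase reporter in HEK293; charcoal/dextran FBS 1%; 3000 cells/well, 37 C 6-6.5 h; cpd titration + rosiglitazone 50 nM final, 16 h 37 C; CCF4, 2 h RT; 460/530 nm; Hill fit → IC50, efficacy.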

[4] = qHTS assay for small molecule agonists of the antioxidant response element (ARE) signaling pathway (AID 651741; active means well fitted activation curve with a large enough effect in the signal ratio; inconclusive means small, poorly fitted or top-dose-only effect, or effect the other way, or a change in a side signal; the % refers to the signal ratio; further: potency means the concentration at half of the fitted maximal effect); conditions: HepG2 ARE-bla reporter, beta-lactamase FRET ratio, 16 h; activation: at 96 µM (top of the series) unless noted
Outline: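 Quantitative HTS in HepG2 cells stably expressing an ARE-beta-lactamase reporter; 16 h compound exposure at 37 C, followed by 2 h room-temperature incubation with LiveBLAzer B/G FRET substrate and fluorescence measurement.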

[5] = qHTS assay to identify small molecules that stimulate interleukin-8 (IL-8) secretion (AID 651758; active means well fitted activation curve with a large enough effect in the signal ratio; inconclusive means small, poorly fitted or top-dose-only effect, or effect the other way, or a change in a side signal; the % refers to the signal ratio; further: potency means the concentration at half of the fitted maximal effect; on activation: 0% is about no effect); conditions: HTRF ratio (665/615); activation: at 92.2 µM (top of the series)
Outline: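 Secreted IL-8 measured by TR-FRET sandwich (cryptate and XL665 antibodies) from THP-1 cells exposed to compound overnight (16 hrs, 37 C).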

[6] = target: Cytochrome P450 3A4 (Homo sapiens) (UniProt P08684); assay: qHTS Assay for Inhibitors and Substrates of Cytochrome P450 3A4 (AID 884); conditions: recombinant CYP3A4, Luciferin-PPXE luminescence; activity change, negative = inhibition: at 57.1 µM (top of the series) unless noted; further: on the % scale 0 is the no-effect control and ±100 the full control effect; nearly all actives have a fitted effect of over 50% in size
Sequence of UniProt P08684 (P08684 whole entry, looked up): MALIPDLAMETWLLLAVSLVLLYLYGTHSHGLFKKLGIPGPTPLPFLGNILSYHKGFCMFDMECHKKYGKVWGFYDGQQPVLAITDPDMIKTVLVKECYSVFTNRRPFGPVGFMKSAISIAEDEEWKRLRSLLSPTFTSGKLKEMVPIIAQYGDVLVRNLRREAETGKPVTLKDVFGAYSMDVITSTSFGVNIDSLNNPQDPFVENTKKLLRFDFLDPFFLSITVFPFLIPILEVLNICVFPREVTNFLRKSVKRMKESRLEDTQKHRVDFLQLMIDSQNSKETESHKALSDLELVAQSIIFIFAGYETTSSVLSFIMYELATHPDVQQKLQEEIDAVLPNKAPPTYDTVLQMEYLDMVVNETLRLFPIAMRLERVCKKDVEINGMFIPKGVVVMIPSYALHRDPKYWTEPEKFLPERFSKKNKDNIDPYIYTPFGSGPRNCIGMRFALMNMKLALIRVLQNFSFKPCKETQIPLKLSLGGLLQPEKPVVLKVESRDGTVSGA
Outline: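 20 nM human CYP3A4 with 25 uM Luciferin-PPXE (at KM) in 200 mM KPO4, preincubated 10 min with compound; NADPH regeneration started a 60 min RT reaction. Luciferin detected by luminescence, normalized to 57 uM ketoconazole as full inhibition.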

[7] = MultiTox-Fluor Cytotoxicity Assay - LYMP1-003 - Dead Cells (AID 961); further: nearly all actives have a fitted effect of over 70% in size
Outline: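 Dead-cell protease release, detected as bis-AAF-R110 fluorescence at 485/520 nm, was measured in LYMP1-003 cells after 16 h compound treatment at 37 C. AC50 values came from Hill-modeled qHTS curves normalized to DMSO (0%) and 15 uM tetraoctylammonium bromide (100%).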

[8] = target: Peroxisome proliferator-activated receptor gamma (Homo sapiens) (UniProt P37231); assay: qHTS assay for small molecule agonists of peroxisome proliferator-activated receptor gamma signaling (AID 588536; active means well fitted curve in the direction sought with a large enough effect in the signal ratio, with a control signal flat, not every such curve was filed as active; inconclusive means small, poorly fitted or top-dose-only effect, or effect the other way, or a change in a side signal; inactive means no such curve, though single readings can be large or run the other way; the % refers to the signal ratio;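 further: 0% = DMSO basal wells and 100% = rosiglitazone at 2 µM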); conditions: HEK293 PPARg-UAS-bla, beta-lactamase ratio, 16 h; activation: at 76.7 µM (top of the series), percent of rosiglitazone response, DMSO as zero
Outline: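 Ratiometric blue/green fluorescence (405 nm excitation; 460 and 530 nm emission) from CCF4-loaded HEK293 reporter cells serves as signal. Exposure to test compounds lasts 16 h at 37 C in medium containing 1% charcoal/dextran-treated serum.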

[9] = qHTS assay for small molecule disruptors of the mitochondrial membrane potential - 1 hr assay (AID 651754; calls by dose curve; further: on the % scale 0 is the no-effect control and ±100 the full control effect; nearly all actives have a fitted effect of over 35% in size); conditions: ratio change, negative = depolarisation: at 92.2 µM (top of the series)
Outline: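 HepG2, 2,000 cells/well, overnight attachment; cpd or DMSO 1 hr, 37C/5% CO2; Mito-MPS dye 30 min, 37C; fluorescence monomer (490/535) and aggregate (540/590).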

[10] = Cellular Toxicity (caspase-3) NIH 3T3 (AID 666);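 further: caspase signal read after 16 h compound exposure; 0% = DMSO basal and 100% = 100 µM tamoxifen stimulation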
Outline: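 Luminescence from aminoluciferin released by caspase-3/7 cleavage of a peptide substrate served as read-out. Mouse fibroblast NIH 3T3 cells were exposed to compounds over a concentration range for 16 hours, and AC50 values came from standard Hill modelling.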

[11] = Cell Viability - LYMP1-003 - Assay at 40 hr (AID 964); conditions: LYMP1-003 lymphoblastoid viability; at 92.2 µM (top of the series); further: on the % scale 0 is the no-effect control and ±100 the full control effect; nearly all actives have a fitted effect of over 60% in size
Outline: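 Cells were seeded at 2500 per well and incubated 5 hr at 37 C. Compounds were added across a concentration series and left 40 hr at 37 C. CellTiter-Glo was added for 30 min at room temperature before luminescence reading.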

[12] = Cell Viability - LYMP2-004 (AID 966); conditions: LYMP2-004 lymphoblastoid cell viability, qHTS; activity change, negative = cytotoxicity: at 92.2 µM (top of the series); further: potency means the concentration at half of the fitted maximal effect; nearly all actives have a fitted effect of over 65% in size
Outline: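 Cells seeded 2500/well, rested 5 hr at 37 C, dosed across a concentration series, incubated 24 hr at 37 C, then CellTiter-Glo added for 30 min at room temperature and luminescence read. Hill fitting gave AC50.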

[13] = target: Glucocorticoid receptor (Homo sapiens) (UniProt P04150); assay: qHTS assay for small molecule agonists of glucocorticoid receptor signaling (AID 588532; active means well fitted curve in the direction sought with a large enough effect in the signal ratio, with a control signal flat; inconclusive means small, poorly fitted or top-dose-only effect, or a change in a side signal; inactive means no such curve, though single readings can be large or run the other way; the % refers to the signal ratio; further: potency means the concentration at half of the fitted maximal effect); conditions: HeLa MMTV-bla, beta-lactamase ratio, agonist, 18 h; activation: stronger effect = higher value, percent of dexamethasone control, DMSO zero
Outline: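 Agonist-mode qHTS: GRE-driven beta-lactamase in HeLa cells exposed 18 h to titrated compounds (up to 92 uM), then CCF4 ratio read after 2 h at RT; Hill-fitted EC50, efficacy relative to 0.1 uM dexamethasone.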

[14] = Cell Viability - LYMP2-005 (AID 967);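 further: potency means the concentration at half of the fitted maximal effect; cells exposed to compound for 24 h at 37 °C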
Outline: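 Acute cytotoxicity is scored as a concentration-dependent drop in intracellular ATP in human lymphoblastoid LYMP2-005 cells after 24 h compound treatment. ATP is quantified by luciferase luminescence, and AC50 is derived by Hill-equation modelling.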

[15] = Cell Viability - LYMP2-017 (AID 972); conditions: LYMP2-017 lymphoblastoid cell viability; activity change, negative = cytotoxicity: at 92.2 µM (top of the series);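 further: cells exposed to compound for 24 hours at 37 °C; on the % scale 0 is the no-effect control and ±100 the full control effect; nearly all actives have a fitted effect of over 55% in size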
Outline: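 2500 cells/well, 5 h 37 C; cpd 24 h 37 C in complete medium; CellTiter-Glo, 30 min RT; luminescence (ATP). AC50 via Hill fit, qHTS.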

[16] = qHTS assay for small molecule agonists of the antioxidant response element (ARE) signaling pathway measured by Nrf2-dependant transcriptional activity (AID 720636; active means well fitted curve in the direction sought with a large enough effect in the repeat runs; inconclusive means weak or mixed curves; inactive means no such curve, though single readings can be large; an effect the other way counts as inactive or inconclusive;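 further: HepG2 cells with an ARE-driven luciferase reporter; % of control where 0% means no effect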)
Outline: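 In HepG2 cells engineered with an Nrf2-responsive luciferase gene, ARE induction was quantified as luminescence after 16 hr compound treatment at 37 C.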

[17] = Cellular Toxicity (caspase-3) N2a (AID 665); conditions: N2a cells, luminescence, normalized: DMSO 0%, 10 µM staurosporine 100%; at 92.2 µM (top of the series);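 further: compound exposure lasted 16 h at 37 °C before readout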
Outline: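 N2a cells, 1500/well, 5 h settle at 37 °C; cpd 16 h, 37 °C; Caspase-Glo 3/7, 1 h RT; luminescence. Norm: DMSO = 0, 10 uM staurosporine = 100%. AC50, Hill fit.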

[18] = MultiTox-Fluor Cytotoxicity Assay - LYMP1-002 - Dead Cells (AID 960); conditions: LYMP1-002 lymphoblastoid cells, dead-cell protease fluorescence; cytotoxicity (dead cells): at 46.1 µM (top of the series); further: potency means the concentration at half of the fitted maximal effect; nearly all actives have a fitted effect of over 60% in size
Outline: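 LYMP1-002 cells 2500/well; 5 hr 37 C pre-incubation; compound 16 hr 37 C; MultiTox-Fluor reagent 60 min RT; dead-cell fluor Ex/Em 485/520. Norm. to DMSO (0%) vs 15 uM tetraoctylammonium bromide (100%); Hill AC50.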

[19] = Cell Viability - LYMP2-019 (AID 973);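 further: cells exposed to compound for 24 h at 37 °C; 0% = DMSO alone and full effect = 92 µM tetraoctylammonium bromide; nearly all actives have a fitted effect of over 55% in size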
Outline: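 Luminescent ATP read-out (CellTiter-Glo, 30 min room temperature) served as the viability measure after 24 hr treatment of lymphoblastoid cells at 37 C. Concentration-response data were fitted to the Hill equation for AC50.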

[20] = Cell Viability - LYMP2-008 (AID 980);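 further: cells exposed to compound for 24 h at 37 °C; on the % scale 0 is the no-effect control and ±100 the full control effect; nearly all actives have a fitted effect of over 60% in size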
Outline: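 qHTS, human lymphoblastoid line, 2500 cells/well; 5 hr preincubation, 24 hr compound, 37 C. CellTiter-Glo ATP luminescence. AC50 via Hill equation. Tetraoctylammonium bromide positive control.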

[21] = target: Retinoic acid receptor RXR-alpha (Homo sapiens) (UniProt P19793); assay: qHTS assay for small molecule antagonists of retinoid X receptor alpha signaling (AID 588546; active means well fitted inhibition curve with a large enough effect in the signal ratio, with a control signal flat, not every such curve was filed as active; inconclusive means small, poorly fitted or top-dose-only effect, or effect the other way, or a change in a side signal; inactive means no such curve, though single readings can be large or run the other way; the % refers to the signal ratio;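 further: cells stimulated with 9-cis-retinoic acid as agonist; on the % scale 0 is the no-effect control and ±100 the full control effect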); conditions: HEK293T RXRa-UAS-bla, beta-lactamase ratio, antagonist mode
Sequence of UniProt P19793 (P19793 whole entry, looked up): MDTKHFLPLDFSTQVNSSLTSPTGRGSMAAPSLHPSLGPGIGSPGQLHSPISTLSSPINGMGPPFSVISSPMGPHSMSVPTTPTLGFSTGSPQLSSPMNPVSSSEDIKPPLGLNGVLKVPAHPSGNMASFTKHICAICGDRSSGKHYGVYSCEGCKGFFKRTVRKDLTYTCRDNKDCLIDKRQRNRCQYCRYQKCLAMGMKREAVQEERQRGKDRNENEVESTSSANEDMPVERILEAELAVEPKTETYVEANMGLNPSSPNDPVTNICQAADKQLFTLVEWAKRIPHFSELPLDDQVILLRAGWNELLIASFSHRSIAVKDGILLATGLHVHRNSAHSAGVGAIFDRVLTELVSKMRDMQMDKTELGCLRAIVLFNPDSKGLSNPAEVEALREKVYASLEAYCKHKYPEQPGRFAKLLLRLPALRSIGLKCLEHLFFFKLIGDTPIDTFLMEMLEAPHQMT
Outline: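 Beta-lactamase reporter inhibition, read as CCF4 fluorescence ratio (ex 405, em 460/530 nm) after 2 h at RT. HEK293T UAS-bla cells, 2500/well, were stimulated with 9-cis-RA at 500 or 100 nM final alongside test compound for 18 h at 37 C.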
Tags describe the fitted curve by direction and shape or compound fluorescence and quenching.

O=C(O)c1ccc(Cl)cc1Cl
inconclusive: activity change, negative = inhibition [1] 4.35% | Potency [2] 3.98 µM [inhibitor, full curve, poor fit] | activity, negative = inhibition [3] -22.2% | Potency [4] 53.1 µM [activator, partial curve] | activation [5] 0.646%

O[C@@H]([C@H](O)[C@@H](O)CBr)[C@@H](O)CBr
inconclusive: activity change, negative = inhibition [1] -5.24% | activity change, negative = inhibition [2] -35.4% | activity, negative = inhibition [3] 6.77% | Potency [4] 75 µM [activator, partial curve, poor fit] | ratio change, negative = depolarisation [9] -0.655% | Potency [5] 75 µM [activator, single point]
inactive: Potency [6] | Potency [7] | Potency [8]

COC(=O)CCCCC(=O)OC
inconclusive: Potency [12] 79.4 µM [rising, single point] | activity change, negative = inhibition [1] 1.83% | Potency [13] 6.31 µM [side channel, falling, full curve, poor fit] | activity change, negative = inhibition [2] -2.36%
inactive: Potency [10] | activity change, negative = cytotoxic [11] -2.16% | Potency [5]

Cc1cccc2ccccc12
inactive: Potency [15] | Potency [16]
inconclusive: Potency [14] 79.4 µM [rising, single point] | activity change, negative = inhibition [1] -1.96% | Potency [2] 1.12 µM [inhibitor, full curve, poor fit]

CC(C)=CCl
inconclusive: Potency [18] 6.31 µM [falling, full curve, poor fit] | activity change, negative = inhibition [1] 8.9%
inactive: caspase-3 activation [17] 1.57% | Potency [19] | Potency [20] | max response [21] 7.55% | Potency [5]
